# Measurements: patent publication US11542275B2, “Substituted imidazolidin-2-one derivatives as PRMT5 inhibitors” (Aurigene Discovery Technologies Limited, priority 2018, dated 2023)
# Target: PRMT5/MEP50 Complex (Homo sapiens (Human), UniProt O14744)
# Assay: PRMT5 inhibition based on TR-FRET assay
# Format: biochemical
# Details: 32 nM PRMT5:MEP50 complex, 50 nM Histone-H4 peptide, 1 μM SAM, 90 minutes at room temperature
# Excerpt: Protein arginine methyltransferase 5 (PRMT5) is a type II arginine methyltransferase that catalyze mono- and symmetric demethylation on arginine residues of histone or non-histone proteins in presence of S-adenosylmethionine (AdoMet or SAM) a cofactor responsible for donating the methyl group. PRMT5 is reported to be overexpressed in several human cancers. To identify compounds that inhibit the PRMT5 and decrease its activity, a TR-FRET based assay has been established. Time-resolved fluorescence resonance energy transfer (TR-FRET) HTS assays are homogeneous proximity assays where the interaction of two dye-labeled binding partners is detected by the energy transfer between a donor and an acceptor dye, and the subsequent light emission by the acceptor dye. PRMT5 catalyzes Histone H4 peptide which is biotin tagged to the Lysine amino acid at carboxyl end, in presence of S-adenosyl-1-methionine (SAM) to methylate the peptide. The antibody specific to mono methylated H4 peptide (H4R3) with Ig conjugate binds to the methylated peptide, indirectly binding to the Europium lanthanide. SureLight Allophycocyanin-Streptavidin binds to the biotin tag of the peptide, therefore accepting the energy transferred from the Europium lanthanide. This energy transfer between Europium to SureLight Allophycocyanin is a direct measure of the activity/inhibition of the PRMT5 enzyme.
# Assay buffer: 20 mM BICINE (pH 7.6), 25 mM NaCl, 2 mM DTT, 0.01% Tween-20 and 0.01% BSA.
# The compound dilutions were prepared as 7.5% DMSO stock solutions in assay buffer. To 2 μL (7.5×) of test compound, 5 μL of PRMT5 enzyme prepared in assay buffer (Final concentration of 32 nM in 15 μL reaction volume) was added and allowed for 30 minutes pre-incubation time in a white polystyrene 384-well plate at room temperature. […] The plates were then read on Victor-3 with Excitation at 340 nm and Emissions collected at 615 and 665 nm in TR-FRET protocol. […]
row,IC50 [µM],SMILES
1,0.069,"CC(=O)N1CCC(c2ccc(CN3CCN(C[C@H](O)CN4CCc5ccccc5C4)C3=O)nn2)CC1 [Compound 38, (R)-1-((6-(1-acetylpiperidin-4-yl)pyridazin-3-yl)methyl)-3-(3-(3,4-dihydroisoquinolin-2(1H)-yl)-2-hydroxypropyl)imidazolidin-2-one]"
2,0.025,"O=C(C1CC1)N1CCC(c2cnc(CN3CCN(C[C@H](O)CN4CCc5ccccc5C4)C3=O)cn2)CC1 [Compound 41, (R)-1-((5-(1-(cyclopropanecarbonyl)piperidin-4-yl)pyrazin-2-yl)methyl)-3-(3-(3,4-dihydroisoquinolin-2(1H)-yl)-2-hydroxypropyl)imidazolidin-2-one]"
3,0.047,"CC(=O)N1CCC(c2cnc(CN3CCN(C[C@H](O)CN4CCc5ccccc5C4)C3=O)cn2)CC1 [Compound 34, (R)-1-((5-(1-acetylpiperidin-4-yl)pyrazin-2-yl)methyl)-3-(3-(3,4-dihydroisoquinolin-2(1H)-yl)-2-hydroxypropyl)imidazolidin-2-one]"
